Measurements taken from PubChem BioAssay AID485344 (National Center for Advancing Translational Sciences (NCATS), 2010).
Screen size: about 340,000 compounds; about 6,900 (2%) were called active. No stated cut-off is given here; in the data, active means inhibition above about 30%; inactive means below that, where a call was filed. This is a selection; strong and weak results do not stand in their true shares. The source gives no active or inactive call for entries shown without one.

target: D(2) dopamine receptor (Homo sapiens) (UniProt P14416); assay: HTS Assay for Allosteric Antagonists of the Human D2 Dopamine Receptor: Primary Screen for Antagonists; details: HEK293 TREx D2 cells, calcium flux, dopamine EC80; at 10 µM; stronger effect = higher value; further: 0% is about no effect
Summary of the method: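 In this primary screen, negative modulation is detected by tracking calcium flux after an EC80 dopamine challenge in inducible HEK293 T-REx D2 cells preexposed to test compound for 180 s.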

Chain of UniProt P14416 (P14416 whole entry, looked up): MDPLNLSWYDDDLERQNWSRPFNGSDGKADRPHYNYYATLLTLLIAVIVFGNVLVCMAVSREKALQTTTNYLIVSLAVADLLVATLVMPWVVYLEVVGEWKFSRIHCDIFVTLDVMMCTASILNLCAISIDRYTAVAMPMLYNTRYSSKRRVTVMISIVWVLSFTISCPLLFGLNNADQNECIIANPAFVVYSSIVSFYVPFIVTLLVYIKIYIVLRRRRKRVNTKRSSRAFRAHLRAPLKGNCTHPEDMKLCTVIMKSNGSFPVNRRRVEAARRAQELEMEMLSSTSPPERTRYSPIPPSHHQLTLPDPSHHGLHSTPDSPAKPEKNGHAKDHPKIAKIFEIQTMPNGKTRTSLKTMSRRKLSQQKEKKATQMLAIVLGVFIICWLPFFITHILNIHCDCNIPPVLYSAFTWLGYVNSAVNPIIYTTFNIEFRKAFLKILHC

Row | SMILES | inhibition
1 | COc1ccc(C2=C(C)C(=O)N(Cc3ccc(C(=O)Nc4cc(C)ccc4C)cc3)S2(=O)=O)cc1 | 9.64%
2 | Cn1cnc(S(=O)(=O)N2CCC(C(=O)NCc3ccc(F)cc3)CC2)c1 | -9.33%
3 | O=C(Cc1ccc(Cl)cc1)NCC(c1cccs1)S(=O)(=O)c1ccc(F)cc1 (stereo unspecified) | -17.2%
4 | Cc1cccc(N2CCN(CCCNC(=O)c3nnc(Cc4c(F)cccc4Cl)o3)CC2C)c1 (stereo unspecified) | -23.2%
5 | O=C(Cn1c(=O)n(-c2ccc(Cl)cc2)c(=O)c2oc3ccccc3c21)Nc1ccccc1 | 2.78%
6 | CC1CCN(c2ncnc3c2nnn3C)CC1 | -6.81%
7 | O=C(c1ccco1)N1CCN(c2nc3c(Cl)cccc3s2)CC1 | 0.87%
8 | CCN(CC)S(=O)(=O)c1nnc(NC(=O)c2ccc(C(C)C)cc2)s1 | 14.9%
9 | CCOc1ccc(C(=O)Nc2cc(-c3cn4cccnc4n3)ccc2C)cc1OCC | 13.3%
10 | Cc1cc(C)cc(NC(=O)C2CCC(CNS(=O)(=O)c3ccc4c(c3)C(C)(C)C(=O)N4C)CC2)c1 (stereo unspecified) | -14.8%
11 | CCn1cc(C(=O)NCCc2ccc(C)cc2)c(=O)c2cc(S(=O)(=O)N3CCCCC3)ccc21 | 23.3%
12 | COc1ccc(CCNC(=O)c2c(C)oc3ncn(CC(C)C)c(=O)c23)cc1OC | -3.28%
13 | O=C(c1ccc(F)cc1)C1CCN(C(=O)c2ccc(F)cc2)CC1 | active: 41%
14 | COCC(=O)Nc1ccc(OC)c(Cl)c1 | active: 36.6%
15 | COc1cccc(CNC(=O)CN2C(=O)COc3ccc(S(=O)(=O)Nc4ccccc4)cc32)c1 | -2.11%
16 | O=C(CCS(=O)(=O)c1cc(Br)cc2c1N(C(=O)C1CC1)CC2)Nc1ccc(C(F)(F)F)cc1 | -2.52%
17 | CN(Cc1ccccc1)C(=O)C1CCN(S(=O)(=O)c2ccc3nc4c(c(C(=O)O)c3c2)CCCC4)CC1 | 1.7%
18 | COc1ccc(CNC(=O)C2CCN(C(=O)N3CC(C)Oc4ccc(C)cc43)CC2)cc1 (stereo unspecified) | 13.2%
19 | Cn1c(=O)c2sccc2n2c(CCC(=O)NCc3ccccc3Cl)nnc12 | -16.4%
20 | O=C(Nc1ccc(Cl)cc1)c1cc(S(=O)(=O)N2CCc3ccccc32)ccc1F | 15.3%
21 | Cc1ccc(S(=O)(=O)Nc2nc3n(n2)C(c2ccccc2Cl)C=C(c2ccccc2)N3)cc1 (stereo unspecified) | 22%
22 | COc1ccc(-c2nc(Cn3c(SCc4ccccc4F)nc4ccncc43)c(C)o2)cc1OC | -10.7%
23 | Cc1cccc(NC(=O)c2oc3ccccc3c2NC(=O)c2cc(=O)c3cc(Cl)ccc3o2)c1 | 16.1%
24 | Cn1c(SCC(=O)c2ccc(F)cc2)nnc1-c1ccccc1Br | -13.1%
25 | COc1ccc(C)cc1NC(=O)CSc1ccc(-c2ccccn2)nn1 | -6.52%
26 | COc1ccccc1C(=O)Nc1c(C(=O)N(C)c2ccccc2)sc2nc(C)cc(C)c12 | 8.92%
